From PubChem BioAssay AID1347165 (National Center for Advancing Translational Sciences (NCATS), 2019)
The whole screen tested about 220,000 compounds, of which about 5,700 (2.6%) were called active. The inconclusive results got no clear call from the source; some entries with a clear call stand among them for comparison. Calls come from the whole dose curve; as a rule, active = well fitted inhibition curve with a large enough effect; inconclusive = small, poorly fitted or top-dose-only effect; inactive = no such curve, though single readings can be large or run the other way. Where the call is inconclusive, the potency comes from a doubtful curve fit.

What follows are molecules tested against Lysine-specific demethylase 5B (Homo sapiens) (UniProt Q9UGL1) (assay: Primary screen for KDM5B Histone Demethylases FDH-coupled qHTS). Details: FDH-coupled NADH fluorescence (FDH is formaldehyde dehydrogenase); activity change, negative = inhibition: at 57.7 µM (top of the series) unless noted.
UniProt Q9UGL1, sequence (Q9UGL1 whole entry, looked up): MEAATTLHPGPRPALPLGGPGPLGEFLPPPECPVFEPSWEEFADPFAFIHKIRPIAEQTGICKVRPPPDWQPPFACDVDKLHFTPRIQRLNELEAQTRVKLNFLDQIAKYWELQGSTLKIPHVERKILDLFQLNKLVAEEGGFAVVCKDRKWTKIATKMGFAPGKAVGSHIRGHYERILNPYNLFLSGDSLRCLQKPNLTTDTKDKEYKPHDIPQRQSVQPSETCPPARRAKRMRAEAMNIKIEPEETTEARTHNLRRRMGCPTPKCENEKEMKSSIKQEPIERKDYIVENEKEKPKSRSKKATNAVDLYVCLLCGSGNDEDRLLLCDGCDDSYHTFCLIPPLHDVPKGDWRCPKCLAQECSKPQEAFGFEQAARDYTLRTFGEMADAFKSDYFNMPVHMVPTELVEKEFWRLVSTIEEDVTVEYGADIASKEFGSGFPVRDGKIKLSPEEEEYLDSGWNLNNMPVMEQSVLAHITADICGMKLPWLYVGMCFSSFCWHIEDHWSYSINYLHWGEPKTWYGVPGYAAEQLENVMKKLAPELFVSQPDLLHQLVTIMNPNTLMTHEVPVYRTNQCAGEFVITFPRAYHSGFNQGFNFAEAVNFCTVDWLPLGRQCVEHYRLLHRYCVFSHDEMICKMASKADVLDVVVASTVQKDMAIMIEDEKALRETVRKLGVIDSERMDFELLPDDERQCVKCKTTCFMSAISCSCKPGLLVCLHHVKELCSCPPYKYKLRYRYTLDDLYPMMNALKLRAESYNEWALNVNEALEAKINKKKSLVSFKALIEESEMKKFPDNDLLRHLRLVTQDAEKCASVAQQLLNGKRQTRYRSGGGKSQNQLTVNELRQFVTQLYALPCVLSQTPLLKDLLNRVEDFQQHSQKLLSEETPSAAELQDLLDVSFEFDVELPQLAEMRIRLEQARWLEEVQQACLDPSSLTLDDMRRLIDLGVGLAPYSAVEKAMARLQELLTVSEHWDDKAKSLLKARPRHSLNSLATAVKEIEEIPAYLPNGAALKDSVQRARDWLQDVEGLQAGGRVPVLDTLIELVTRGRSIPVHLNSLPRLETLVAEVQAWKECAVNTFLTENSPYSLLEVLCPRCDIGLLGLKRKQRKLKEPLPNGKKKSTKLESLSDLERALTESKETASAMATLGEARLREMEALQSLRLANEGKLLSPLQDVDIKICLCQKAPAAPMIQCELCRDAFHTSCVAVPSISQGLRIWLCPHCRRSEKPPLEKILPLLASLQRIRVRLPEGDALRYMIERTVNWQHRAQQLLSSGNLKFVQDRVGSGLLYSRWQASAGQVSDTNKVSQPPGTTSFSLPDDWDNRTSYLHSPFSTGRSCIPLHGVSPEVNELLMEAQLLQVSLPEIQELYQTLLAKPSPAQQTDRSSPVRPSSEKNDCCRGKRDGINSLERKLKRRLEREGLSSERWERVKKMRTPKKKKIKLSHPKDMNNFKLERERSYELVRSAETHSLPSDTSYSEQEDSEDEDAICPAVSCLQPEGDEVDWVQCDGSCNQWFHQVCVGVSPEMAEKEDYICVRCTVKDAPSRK
How it was run: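 Compound dilutions met 200 nM (final) KDM5BΔAP for 10 min at room temperature before substrate addition. The substrate mix held 12.5 µM H3K4me3 with cofactors 25 µM α-ketoglutarate and 50 µM Fe²⁺. NADH signal gain over 30 min defined activity.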
Note: nearly all actives have a fitted effect of over 70% in size.
Potency is the fitted concentration of half-maximal effect; tags give direction and shape of the fitted curve.
Throughout, for activity change, negative = inhibition: 0% is about no effect.

Row | Structure (SMILES) | Potency | activity change, negative = inhibition
1 | C=CCn1c(-c2ccccc2Cl)cn2cc(C(=O)N3CCCC(O)C3)nc2c1=O (centres undefined) | inconclusive: 39.8 µM [inhibitor, single point] | –
2 | COc1ccc(N=CC=C2OC(C)(C)C(C)(C)O2)cc1OC | inconclusive: 35.5 µM [inhibitor, single point] | –
3 | OCCN1CCN(C(=S)c2ccc(-c3ccccc3)cc2)CC1 | inconclusive: 35.5 µM [inhibitor, single point] | –
4 | O=C(Nc1ccc(F)c(Cl)c1)c1nsc(Cl)c1Cl | inconclusive: 22.4 µM [inhibitor, partial curve, poor fit] | –
5 | COCC(=O)N1CCC2(CC1)OC(=O)N(Cc1ccc(O)cc1)C2(C)c1ccccc1 (centres undefined) | inconclusive: 28.2 µM [inhibitor, single point] | –
6 | CCCCCOc1ccccc1Cn1c(=O)oc2ccc(C)cc21 | – | inconclusive: -41.8% [inhibitor]
7 | Cc1nn(C(C)C(=O)Nc2cccc(F)c2)c(=O)c2c1sc1ccccc12 (centres undefined) | inconclusive: 31.6 µM [inhibitor, single point] | –
8 | COCCNC(=O)CCSc1nc(-c2ccc(OC)cc2)cc(C(F)(F)F)n1 | inconclusive: 31.6 µM [inhibitor, partial curve, poor fit] | –
9 | O=C(CCSc1ccc(Cl)cc1)Nc1ccc(CSc2ccccc2)cc1 | – | inactive: 8.08%
10 | CCOCCn1c(=O)[nH]c2cc(C(=O)NCc3ccc(F)c(F)c3)ccc21 | inconclusive: 15.8 µM [inhibitor, partial curve, poor fit] | –
11 | N#Cc1ccccc1CNc1ccccc1I | – | inactive: -1.15%
12 | CC(C)CCNC(=S)Nc1ccccc1 | – | inactive: 14.6%
13 | CC(C)OCCCNC(=O)c1c2c(nc3ccccc13)C(=O)N(C1CCCCC1)C2 | inconclusive: 28.2 µM [inhibitor, partial curve, poor fit] | –
14 | Cc1nn(C)cc1S(=O)(=O)N1CCN(Cc2cccc(Br)c2)CC1 | – | inactive: 9.82%
15 | Cc1ccc(C(=O)c2cn(Cc3ccccc3)c3cc4c(cc3c2=O)OCCO4)cc1 | inconclusive: 31.6 µM [inhibitor, single point] | –
16 | Cc1nc2ccc(C(=O)NCc3ccccc3CN(C)C)cc2nc1C | – | inactive: -5.61%
17 | NC(=O)CSc1nnc(CNC(=O)c2ccc(Cl)cc2)n1-c1ccccc1 | – | inactive: -3.58%
18 | CCN(C(=O)c1cc2c(=O)[nH]c3ccc(C)cc3c2s1)c1ccc(OC)cc1 | inconclusive: 20 µM [inhibitor, single point] | –
19 | COc1ccc(NC(=O)Nc2ccc(C)n(CC(=O)NCC(C)C)c2=O)cc1 | inconclusive: 35.5 µM [inhibitor, single point] | –
20 | COc1ncccc1-c1cnc2[nH]cc(CC(=O)Nc3cc(C)nn3C)c2c1 | active: 39.8 µM | –
21 | O=C(NC1CC1)c1cc(SCC(=O)N2CCCCC2)nc2ccccc12 | – | inactive: -21.1%
22 | Cn1ccc2c(OCC(=O)NCc3ccc(F)cc3)cccc2c1=O | inconclusive: 31.6 µM [inhibitor, single point] | –
23 | Cc1ccc(Cl)cc1OCc1n[nH]c(=S)n1C | – | inactive: 7.64%

Row | Structure (SMILES) | Potency | activity change, negative = inhibition
24 | NNc1cc(Cl)c(Cl)cc1Cl | inconclusive: 31.6 µM [inhibitor, single point] | –
25 | COc1ccc(NCc2cccn2-c2nnc(N3CCC(C)CC3)s2)c(OC)c1 | inconclusive: 5.01 µM [inhibitor, partial curve, poor fit] | –
26 | Cc1nc2cc(NC(=O)C3CC(=O)N(C4CC4)C3)ccc2o1 (centres undefined) | – | inactive: 15.6%
27 | CSc1ccc(-c2nc3cc(C)ccn3c2Nc2ccc(C)cc2)cc1 | inconclusive: 15.8 µM [inhibitor, partial curve, poor fit] | –
28 | CCCCOc1ccc(/C=C(/C#N)c2nc3ccccc3[nH]2)cc1 | inconclusive: 39.8 µM [inhibitor, single point] | –
29 | Nc1nccnc1C(=O)NCc1cccnc1Oc1cccc(F)c1 | inconclusive: 22.4 µM [inhibitor, partial curve, poor fit] | –
30 | Cc1oc(-c2nc(C#N)c(NCc3ccc(F)cc3)o2)cc1S(=O)(=O)N1CCCC1 | inconclusive: 15.8 µM [inhibitor, partial curve, poor fit] | –
31 | O=C(NCc1ccc(C(=O)N2CCCCC2)cc1)C1NCCc2[nH]cnc21 (centres undefined) | inconclusive: 35.5 µM [inhibitor, partial curve, poor fit] | –
32 | Cc1cccc(S(=O)(=O)c2cn(Cc3ccc(F)cc3)c3cc(N4CCOCC4)c(F)cc3c2=O)c1 | inconclusive: 31.6 µM [inhibitor, partial curve, poor fit] | –
33 | CCOCCn1c(=NC(=O)c2ccc3c(c2)OCCO3)sc2cc(OCC)ccc21 | inconclusive: 11.2 µM [inhibitor, partial curve, poor fit] | –
34 | Cc1c(CCC(=O)NCc2ccccc2)c(=O)oc2c(C)c(O)ccc12 | inconclusive: 2.24 µM [inhibitor, full curve, poor fit] | –
35 | COc1ccccc1-c1cc2c(nc1-c1ccccc1)nc(C(=O)NC1CCN(C)CC1)n2C | active: 28.2 µM | –
36 | O=C(CCc1cccs1)N(Cc1cccnc1)C1CC1 | – | inactive: 10.9%
37 | CCOC(=O)CCNC(=O)N1CC[C@H]2C(=O)NCCCCCCN(Cc3ccncc3)[C@@H]2C1 | inconclusive: 25.1 µM [inhibitor, partial curve, poor fit] | –
38 | CCOc1ccccc1CN1CCC2(CCN(C(=O)NC3CCCC3)CC2)Oc2ccccc21 | inconclusive: 22.4 µM [inhibitor, single point] | –
39 | CCNc1c(NS(=O)(=O)c2ccc(C)cc2)c(=O)oc2ccccc12 | – | inactive: -11.4%
40 | COc1ccccc1CC(=O)NCc1nnc2cc(-c3nc(C)no3)ccn12 | inconclusive: 28.2 µM [inhibitor, partial curve, poor fit] | –
41 | c1ccc2[nH]c(-c3ccc4c(c3)CCCC4)cc2c1 | inconclusive: 22.4 µM [inhibitor, partial curve, poor fit] | –
42 | COc1cccc(-c2cc(=O)[nH]c(Nc3nc(C)c4ccccc4n3)n2)c1 | – | inactive: 8.36%
43 | Cc1cc(C)c(S(=O)(=O)Nc2ccc(Cl)cn2)cc1Br | – | inactive: 10.2%
44 | COc1cccc(NC(=O)C(C)OC(=O)c2ccc3ccccc3n2)c1 (centres undefined) | – | inactive: -9.97%
45 | O=S(=O)(c1ccc2nc(Nc3ccc(Br)cc3F)ccc2c1)N1CCCC1 | – | inconclusive: -40% [inhibitor]
46 | O=C1NC(C(=O)Nc2ccc3c(c2)OCCO3)Cn2cccc21 (centres undefined) | inconclusive: 15.8 µM [inhibitor, partial curve] | –

Row | Structure (SMILES) | Potency | activity change, negative = inhibition
47 | COc1nc2c(cc1CNC(=O)C(C)(C)OC)C(=O)N(CCc1ccccn1)C2 | inconclusive: 8.91 µM [inhibitor, partial curve] | –
48 | COC(=O)CNC(=O)c1cc(-c2ccc(Cl)cc2Cl)nc2c1cnn2C | active: 79.4 µM | –
49 | CCN1CCN(C(=O)c2cc(-c3ccc(OC)cc3)nc3ccccc23)CC1 | inconclusive: 28.2 µM [inhibitor, partial curve, poor fit] | –
50 | CCNc1c(NC(=O)Nc2ccccc2OCC)c(=O)oc2ccccc12 | inconclusive: 6.31 µM [inhibitor, full curve, poor fit] | –
51 | Cc1cc(C)cc(N2CC(c3nnc(NC(=O)c4cccc(NC(=O)C(C)C)c4)s3)CC2=O)c1 (centres undefined) | – | inactive: 45.7%
52 | CCOc1ccc(/C=C(/C#N)C(=O)c2ccccc2)cc1OC | – | inactive: -25.9%
53 | Cc1ccc(-c2cc3c(=O)n(CCNC(=O)c4ccc(F)cc4Cl)ccn3n2)cc1C | active: 31.6 µM | –
54 | Cc1oc2cc(OCC(=O)NCC(=O)O)ccc2c(=O)c1-c1ccc(Cl)cc1 | – | inactive: 25.5%
55 | O=[N+]([O-])c1cc([N+](=O)[O-])c2nonc2c1Nc1ccccc1O | inconclusive: 28.2 µM [inhibitor, partial curve, poor fit] | –
56 | CCN(C(=O)/C=C/c1cccs1)C1CCCCC1 | – | inactive: 18.5%
57 | CS(=O)(=O)N1CCCN(CC2CCCCC2)CCNC(=O)CC1c1ccccc1 (centres undefined) | inconclusive: 39.8 µM [inhibitor, single point] | –
58 | COc1ccc(-c2ccnc3nc(CCC4CCCC4)nn23)cc1OC | active: 12.6 µM | –
59 | CCOC(=O)CSc1nc(-c2ccc(OC)cc2)cc(C(F)(F)F)c1C#N | inconclusive: 25.1 µM [inhibitor, partial curve, poor fit] | –
60 | CCCCCCn1c(SCC(=O)c2ccccc2)nc2c1c(=O)n(C)c(=O)n2C | – | inactive: 8.42%
61 | COc1ccc(C(=O)NCC2Cn3cccc3C(=O)N2C)cc1 (centres undefined) | – | inactive: 15.1%
62 | Cn1cccc1CN1CCCC(C(=O)NCc2ccccc2)CCNC(=O)CC1 (centres undefined) | inconclusive: 31.6 µM [inhibitor, single point] | –
63 | CN(C(=O)CSc1nc2ccc(NC(=O)c3ccccc3)cc2s1)c1ccccc1 | inconclusive: 39.8 µM [inhibitor, single point] | –
64 | O=C(CSc1oc(-c2cccs2)nc1S(=O)(=O)c1ccccc1)Nc1ccc(F)cc1 | inconclusive: 28.2 µM [inhibitor, single point] | –
65 | O=C(COc1cccnc1[N+](=O)[O-])Nc1ncc(Cl)cc1Cl | inconclusive: 20 µM [inhibitor, partial curve, poor fit] | –
66 | Cc1ccc(C2=NN(CCC(=O)NCCc3cccc(C)c3)C(=O)CC2)cc1 | inconclusive: 3.16 µM [inhibitor, partial curve, poor fit] | –
67 | COc1ccc(Cn2c(NCC(C)C)nc3c2c(=O)n(C)c(=O)n3C)cc1 | inconclusive: 31.6 µM [inhibitor, single point] | –
68 | c1ccc2sc([C@H]3CCN(C4CCC4)C3)nc2c1 | inconclusive: 31.6 µM [inhibitor, partial curve] | –
69 | CN(C)c1ccc(C(=O)NCC2CCN(c3cc(-c4ccc(Cl)cc4)[nH]n3)CC2)cc1 | inconclusive: 28.2 µM [inhibitor, single point] | –
